The other results are listed elsewhere or left out. At the low end of the ranking, values are background and their order means little.

This test deals with SIX1-Q177R homeodomain (UniProt Q15475). Nature of the test: universal protein binding microarray. Particulars: Universal all-10-mer PBM (8x60K, AMADID 030236), 300 nM GST-tagged protein, Alexa Fluor 488 anti-GST; buffer, salt, pH and temperature not stated; high values mean tight binding; most listed sequences are background and not binding sites; double strand, one strand shown.
As for GGGCAAAA, the binding signal was -0.107 E-score.
Under AAACCGCA stands -0.14 E-score; under CCGGTATC, 0.284 E-score.
As for CGTCGCAA, the binding signal was -0.262 E-score.
With ATCCAATG the figure was -0.025 E-score.
With CCGCTTGA the figure was 0.0689 E-score; with AAGACTAA, 0.0261 E-score.
With ACTCTCGC the figure was -0.0845 E-score; with TATTCTGA, -0.0987 E-score; with GAGCCATC, -0.128 E-score.
For the sequence CTAGCTGA, the binding signal is -0.15 E-score.
Under CGCAGCTC stands -0.0248 E-score.
On to TACCGGAA, for which the binding signal is -0.0409 E-score.
Under TGGATCAA stands 0.147 E-score; under GAGACACA, 0.241 E-score.
Under AGTCGTGC stands -0.042 E-score; under AAGTAATC, 0.163 E-score.
Under GATATGCA stands -0.0875 E-score; under CTGGCGCA, 0.0234 E-score.
With GCTCTTAC, the binding signal amounted to 0.0757 E-score.
Under CGGGGTGA stands 0.166 E-score.
With AGCGTCAA the figure was 0.0409 E-score; with CTCGGTGA, -0.174 E-score.
Under GCGGCGTA stands 0.0464 E-score; under TATCATGA, -0.0594 E-score; under AGGTCTTA, -0.0436 E-score.
With ATCTCGCC, the binding signal was -0.335 E-score.
Under TAATATAA stands 0.0896 E-score; under AAATAGGG, -0.0248 E-score; under GGAAGTAC, -0.107 E-score.
With AAATACGT the figure was -0.241 E-score.
With ACTATTCA the figure was 0.000625 E-score; with AGCCAAAT, -0.265 E-score.
For CCGTGCTA, the binding signal was 0.111 E-score.
On to ACGCCAGT, for which the binding signal came out at 0.123 E-score.
With CCCTCGGA the figure was 0.19 E-score.
For GGGGCAGA, the binding signal is 0.0913 E-score.
As for CAGTCGAC, the binding signal was -0.115 E-score.
Take CAAGAGCG: the binding signal is -0.191 E-score.
With CTTCACAA the figure was -0.117 E-score.
Under AACTGTGA stands -0.0487 E-score; under CCACCGAG, 0.0196 E-score; under GAATTATA, -0.0433 E-score.
For ATAAAGAA, the binding signal was -0.0439 E-score.
As for ACGGGAAC, the binding signal was -0.0544 E-score.
Under AACCTAGG stands -0.0907 E-score.
As to GAAGGTCC, the binding signal was -0.245 E-score.
Under GGACACAA stands 0.18 E-score; under AGTCCTCA, -0.314 E-score.
With TCCGCGCA the figure was 0.0518 E-score.
With ACCGAACC the figure was 0.197 E-score; with AGAAATTG, -0.173 E-score; with CCGCATTA, 0.0732 E-score.
Regarding AGCCGACG, the binding signal was determined as 0.0469 E-score.
Under CGTAGACA stands 0.0345 E-score; under CTAGGGCC, -0.25 E-score.
Under CACACGCC stands 0.252 E-score.
Under ATTATTAC stands 0.0442 E-score; under AGCTCTGA, -0.0246 E-score; under TAATATGA, -0.133 E-score.
Consider TATTGGCA, for which the binding signal was determined as 0.0118 E-score.
Under CTAGTCAG stands -0.189 E-score.
With AGACTTGG the figure was -0.142 E-score; with AGCACGTA, 0.109 E-score; with GGGACTTA, -0.15 E-score.
With ACACCGCC the figure was 0.474 E-score.
On to GCAGGATA, for which the binding signal came to 0.121 E-score.
As for CCAAGGAA, the binding signal was -0.115 E-score.
Under GTATCGTA stands 0.18 E-score.
Under ACCCGATA stands 0.237 E-score; under CAGGTATG, -0.0649 E-score.
Under CCACATTA stands -0.0817 E-score.
As for AATTTGAG, the binding signal was -0.112 E-score.
Under GGACATCA stands -0.259 E-score.
Turning to CGTCCTGC, the binding signal is 0.00934 E-score.
With GCCGATAA the figure was -0.0435 E-score.
With GCAGCCCC the figure was -0.101 E-score; with AACAGCTC, -0.222 E-score.
Under AATGACCA stands -0.297 E-score; under ACATTCGC, -0.155 E-score; under AGGTCGAC, 0.014 E-score.
Consider ATCCGGGC, for which the binding signal was found to be 0.0339 E-score.
With CGCGGTAA the figure was -0.02 E-score; with CGCCACAA, 0.142 E-score.
In the case of CATGTGCC, the binding signal was -0.0789 E-score.
Under ACAGCTTA stands -0.163 E-score; under GCCTAGCC, -0.192 E-score.
With GCTTGAAC the figure was 0.000595 E-score.
AGGTGGTC: the binding signal is -0.0851 E-score.
With AATTCGGG the figure was -0.0131 E-score; with CCCCGACC, 0.157 E-score; with GATTCTCC, -0.103 E-score.
With ATCCCAGG the figure was 0.123 E-score.
Under CACCGGTG stands 0.418 E-score; under GAGGGATA, 0.145 E-score; under CGTGTTAG, 0.38 E-score.
For the sequence ATTAGCCC, the binding signal is -0.174 E-score.
With GTCAAAAC the figure was -0.00246 E-score; with ACTCTAAA, -0.089 E-score; with ACCGGTTC, -0.064 E-score.
Under CGGAATAG stands -0.114 E-score; under TGCAAAAA, -0.114 E-score.
Under CTGCCACC stands 0.0483 E-score; under CCCTAACC, 0.04 E-score.
Regarding CAGATATG, the binding signal was -0.0084 E-score.
With AGCGAGCC the figure was -0.162 E-score; with GGACTGGA, -0.078 E-score.
Turning to ACCGGTTG, the binding signal turned out to be 0.145 E-score.
Turning to TGCAACCA, the binding signal was -0.0754 E-score.
Under ACGGACAG stands -0.0252 E-score; under GACGGGCA, -0.108 E-score; under CCACTCCA, 0.152 E-score.
Under ATTAGCTC stands -0.109 E-score; under CCTGGGCG, 0.0197 E-score.
Under CGGTGCCC stands 0.029 E-score.
CGAGACAC: the binding signal was 0.389 E-score.
For the sequence GTATTAGA, the binding signal came out at 0.0952 E-score.
Under ACTCTTAT stands 0.212 E-score.
Turning to ACTAAAGC, the binding signal was -0.061 E-score.
Under GGCCCTAC stands -0.139 E-score; under ATCTGGCG, -0.0179 E-score; under CGGGCGAG, 0.00069 E-score.
Turning to CGCAAGAA, the binding signal is -0.086 E-score.
Under CCGCATGC stands -0.00511 E-score; under CTAATCCC, -0.0095 E-score; under GAAAGACC, -0.22 E-score.
Under CCCGAACA stands 0.17 E-score; under CCAATCTC, -0.175 E-score; under ATGTCTTC, -0.0422 E-score.
Under CTCTGAGC stands -0.0902 E-score.
ACAGTCGG: the binding signal is 0.136 E-score.
For the sequence GAGACGCC, the binding signal was found to be 0.0436 E-score.
With AAGGAATA the figure was -0.237 E-score.
With ATATCAAT the figure was -0.0784 E-score; with AAGCTAAA, -0.351 E-score.
With CACCAGCG the figure was 0.22 E-score.
Turning to ACTATGAC, the binding signal came to 0.0171 E-score.
For ATTAGTTC, the binding signal was -0.0385 E-score.
With TCGGGTAA the figure was 0.194 E-score.
Turning to AGAGGCAA, the binding signal is -0.183 E-score.
Under CAACGGAG stands 0.0118 E-score.
With AGAGAGCC the figure was -0.259 E-score; with GCTCCCTA, -0.118 E-score; with ATGAATTG, -0.0513 E-score.
Under TGATATAA stands -0.155 E-score; under GCAGTAGC, 0.0276 E-score.
In the case of GGTCCGTA, the binding signal came out at 0.189 E-score.
As to ATGGTGAG, the binding signal stood at 0.0305 E-score.
With AAAGCTGC the figure was -0.102 E-score; with GTTTCTAA, 0.0393 E-score.
With ATACCCTA the figure was 0.312 E-score; with CGTTTGGC, -0.187 E-score.
For the sequence GAGACCTC, the binding signal is -0.0967 E-score.
Turning to CTGCCATA, the binding signal was -0.109 E-score.
Under ACGCCATG stands 0.0868 E-score; under CGAAAGAG, -0.304 E-score.
With ACTTACGA the figure was 0.0949 E-score; with GAGTCTAA, -0.0765 E-score; with CGGATTCA, 0.0346 E-score.
Under GACGGTCA stands -0.257 E-score; under GGCCGTTA, -0.0511 E-score; under AATCTCCG, -0.145 E-score.
Regarding GGTGTATA, the binding signal stood at 0.458 E-score.
For ATGATCCG, the binding signal amounted to 0.0063 E-score.
Under AAAAATAA stands -0.211 E-score; under CAAGCGCC, -0.15 E-score; under CTTGGGAC, -0.0509 E-score.
With ACAAGTCC the figure was -0.163 E-score.
With AACGTTCA the figure was -0.227 E-score; with AATGAGAT, -0.052 E-score.
CTCACCTA: the binding signal was -0.0894 E-score.
With CCGAATCG the figure was -0.0316 E-score.

The values above are taken from publication PMC10668032.
